Experimental data reported in publication PMC4336329 (PLoS ONE, 2015).
Hit rate of the full screen: of about 310,000 compounds, about 2,200 (0.71%) showed an effect of 50% or more. Effects have a minus sign here. This is one part of the list.

molecular target: human ether-à-go-go-related gene (hERG) potassium channel (human, UniProt Q12809); assay: primary screen, population patch clamp on CHO cells stably expressing hERG
Sequence (Q12809 whole entry, looked up): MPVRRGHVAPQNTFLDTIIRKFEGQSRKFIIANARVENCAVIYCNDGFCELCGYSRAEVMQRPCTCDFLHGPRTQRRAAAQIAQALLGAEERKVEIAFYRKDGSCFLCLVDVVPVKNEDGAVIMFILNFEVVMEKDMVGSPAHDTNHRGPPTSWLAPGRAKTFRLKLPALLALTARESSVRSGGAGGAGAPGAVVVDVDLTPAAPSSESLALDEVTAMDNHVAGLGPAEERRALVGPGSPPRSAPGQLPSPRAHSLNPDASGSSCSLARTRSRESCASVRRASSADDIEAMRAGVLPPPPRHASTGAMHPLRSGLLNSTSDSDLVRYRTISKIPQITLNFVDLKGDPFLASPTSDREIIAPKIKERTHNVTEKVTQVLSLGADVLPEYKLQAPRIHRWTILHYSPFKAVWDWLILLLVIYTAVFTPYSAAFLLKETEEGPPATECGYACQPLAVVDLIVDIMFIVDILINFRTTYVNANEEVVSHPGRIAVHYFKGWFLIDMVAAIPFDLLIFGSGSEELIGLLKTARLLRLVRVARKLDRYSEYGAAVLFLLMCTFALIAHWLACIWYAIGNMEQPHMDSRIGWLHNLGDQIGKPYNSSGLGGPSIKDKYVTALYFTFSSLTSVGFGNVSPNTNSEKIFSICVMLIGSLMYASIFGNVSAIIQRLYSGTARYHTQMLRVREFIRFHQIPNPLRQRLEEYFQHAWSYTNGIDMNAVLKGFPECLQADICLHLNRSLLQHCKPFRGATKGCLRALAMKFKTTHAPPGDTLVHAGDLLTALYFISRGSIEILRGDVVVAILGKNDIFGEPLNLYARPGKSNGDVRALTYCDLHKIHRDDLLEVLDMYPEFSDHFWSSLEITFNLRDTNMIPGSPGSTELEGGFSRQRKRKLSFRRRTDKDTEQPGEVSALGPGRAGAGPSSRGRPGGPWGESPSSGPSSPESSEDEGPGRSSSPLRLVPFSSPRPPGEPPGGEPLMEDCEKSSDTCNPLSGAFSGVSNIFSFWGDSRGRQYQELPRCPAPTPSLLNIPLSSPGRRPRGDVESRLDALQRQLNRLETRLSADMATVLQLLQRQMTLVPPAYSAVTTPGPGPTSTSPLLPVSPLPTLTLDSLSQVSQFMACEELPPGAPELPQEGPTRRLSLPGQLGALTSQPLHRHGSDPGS

Compound | hERG current change (%, negative = inhibition) at 1uM
COc1ccc(CN2C(=O)c3c(c(C)n(C)c3C)C2C(=O)NC2CCC(C)CC2)cc1 (stereo not shown) | 8.33%
Cc1ccc(S(=O)(=O)N(CCC(=O)O)c2ccccc2)cc1 | 4.11%
Cc1ccc(CNC(=O)c2cc(-c3ccccc3)nn2Cc2cc(C)no2)cc1 | 11%
O=C1/C(=C/c2cccnc2)SC(=NCc2ccccc2)N1Cc1ccccc1 | 12.4%
Nc1c(C(=O)O)ccc2c1C(=O)c1ccccc1C2=O | 10.7%
Cc1ccc(C)c(NC(=O)Cn2nnc(C(=O)Nc3c(C)cccc3C)c2N)c1 | -0.358%
COc1ccc(NC(=S)NCC2CCCO2)c(C)c1 (stereo not shown) | 4.6%
CCC(=O)N1CCc2cc(S(=O)(=O)N3CCCC3)ccc21 | 20.3%
Clc1cccc(Cl)c1CSc1nnc(/C=C/c2ccccc2)o1 | 14.2%
O=C(Nc1cc(Br)ccc1O)c1cc(-c2cccs2)on1 | 2.24%
CCOc1ccc(S(=O)(=O)N(C(=O)c2ccco2)c2cc3sc(=O)oc3c3ccccc23)cc1 | 13%
COc1ccc(-n2cnc3sc4c(c3c2=O)CCCC4)cc1 | 13.6%
Cc1ccc(NC(=O)Nn2cnnc2)c(C)c1 | 15.2%
CC(O)CNC(=O)c1ccc(-c2nn(C)c(=O)c3ccccc23)cc1 (stereo not shown) | 3.91%
Cc1ccc([N+](=O)[O-])cc1S(=O)(=O)Nc1cccc(-c2ccc(N3CCCC3)nn2)c1 | 15.7%
Cc1ccc(CSc2nnc(-c3ccc4c(c3)OCO4)o2)cc1 | 4.61%
Cc1ccc(NC(=O)C2CCN(C(=O)N3CCOc4ccccc43)CC2)cc1 | 13.3%
Cc1[nH]c2ccccc2c1C(=O)CNc1nccs1 | 2.35%
CCOC(=O)C1=C(C)C(c2ccccc2OC)NC(=O)N1 (stereo not shown) | 15.8%
COc1ccc(NC(=S)Nc2ncccc2C)cc1OC | 14.1%

Compound | hERG current change (%, negative = inhibition) at 1uM
CCCCNC(=O)Nc1cc(C(=O)OC)ccc1C | 9.29%
Cc1cc(C)n(-c2nc3ccccc3nc2Nc2ccc(CC(=O)O)cc2)n1 | 9.35%
CC(Oc1ccc2ccc(=O)oc2c1)C(=O)NCCN1CCOCC1 (stereo not shown) | 7.43%
CSC1=NC(C)(C)C=C(/C=C/c2ccc(Cl)cc2Cl)N1 | 11.8%
Cc1ccccc1C(=O)N[C@H](C(=O)OCC(=O)c1ccc[nH]1)C(C)C | -1.23%
Cc1ccccc1N1C(=O)[C@@H]2Cc3ccccc3CN2C1=O | 8.41%
Cc1ccc(CC(=O)Nc2ccc(F)c([N+](=O)[O-])c2)cc1C | 14.4%
CCc1c(C)nc(SCC(=O)N2CCCCC2)[nH]c1=O | 9.89%
CCCNC(=O)C1CC(=O)N(c2ccc(OCc3ccc(F)cc3)cc2)C1 (stereo not shown) | 14.3%
CCCC(C)NC(=O)COc1ccc(S(=O)(=O)c2ccc(OCC(=O)NC(C)CCC)cc2)cc1 (stereo not shown) | 6.05%
COc1ccc(S(=O)(=O)N2CCC(C(=O)NCC3CCCO3)CC2)cc1Cl (stereo not shown) | 15.1%
CC(C)(CO)CNC(=O)c1ccc(OC2CCN(C(=O)C3CC3)CC2)cc1 | 7.96%
CC(C)CCOc1ccc(C(=O)NCC(c2ccco2)N(C)C)cc1 (stereo not shown) | 13%
Cc1ccccc1NC(=O)c1cccc(C(=O)Nc2ccccc2C)c1 | 5.58%
O=C(O)c1ccc2c(c1)C(=O)N(N1C(=O)c3ccccc3C1=O)C2=O | -0.831%
CCC(C)NC(=O)N1c2ccccc2Sc2ccccc21 (stereo not shown) | 6.52%
CC(C)(C)c1cc(C(=O)N/N=C/c2ccco2)n[nH]1 | 17.3%
COCc1ccc(CN2CCCC(C(=O)c3sccc3C)C2)o1 (stereo not shown) | 8.68%
CCCCc1ccc(NC(=S)N2CCN(c3ncccn3)CC2)cc1 | 12.8%
O=C(CCC(=O)N1CCOc2ccc(Cl)cc21)N1CCC2(CC1)OCCO2 | 3.97%

Compound | hERG current change (%, negative = inhibition) at 1uM
O=C(Nc1nccs1)c1cc2c(s1)-c1ccccc1OC2 | 15.8%
CCC(=NCCOc1ccc(Cl)cc1)c1c(O)n(C)c(=O)n(C)c1=O | 8.31%
COc1ccccc1N1CCN(C2=CC(=O)CCC2)CC1 | 8.25%
Cn1c(NCCCN2CCOCC2)nc2c1c(=O)n(Cc1ccc(Cl)c(Cl)c1)c(=O)n2C | -10.3%
O=C(CSc1ccsc1[N+](=O)[O-])N1CCCCCC1 | 15.7%
c1ccc(N2CCN(c3nc4cc5c(cc4s3)OCCO5)CC2)cc1 | 0.592%
Nn1c(SCC(=O)N2CCOCC2)nnc1-c1ccc(Cl)cc1Cl | 6.43%
COc1cccc(CN2CCN(C(=O)c3cc(-c4cccnc4)nc4ccc(C)cc34)CC2)c1 | 5.22%
COc1ccc2cc(C(=O)N3CCN(c4cccc(C)c4C)CC3)[nH]c2c1 | 0.912%
COc1ccc(NCc2nnc(SCC(=O)Nc3cc(C)cc(C)c3)o2)cc1 | 5.1%
Cc1ccc(CSCC(=O)NCCc2ccccc2)cc1 | 10.7%
CCOC(=O)Nc1ccc2c(c1)ncn2C1CCCCC1 | 0.84%
O=C1OCCC1Sc1nnc(-c2ccccc2Br)n1Cc1ccccc1 (stereo not shown) | -1.27%
Cl.NCCC(=O)N1c2ccccc2Sc2ccccc21 | 9.1%
COc1ccc(/C(N)=N/OC(=O)CCCc2ccccc2)cc1 | 10.6%
COc1cccc(C(=O)Oc2c(Br)cc(Br)cc2/C=N/NC(=O)c2cc(C)[nH]n2)c1 | 8.81%
COc1ccc(F)cc1Cn1nc(C(=O)O)c2ccccc2c1=O | 16.4%
CCOC(=O)N1CCN(C(=S)Nc2ccc(C)cc2)CC1 | 8.96%
